# Test results: PubChem BioAssay AID1347073 (National Center for Advancing Translational Sciences (NCATS), 2019)
# The campaign covered roughly 45,000 compounds. About 200 (0.44%) were called active. Inconclusive results (about 7%) are left out. Calls come from the whole dose curve; as a rule, active = well fitted activation curve with a large enough effect; inconclusive = small, poorly fitted or top-dose-only effect; inactive = no such curve, though single readings can be large or run the other way. This is one part of the list.
# Experiment: qHTS of TDP-43 Inhibitors: NCGC Sytravon Library Screen; note: 0% is about no effect; nearly all actives have a fitted effect of over 55% in size
# Conditions: yeast TDP-43 toxicity rescue, BacTiter-Glo growth, 24 h; series mostly up to 46.1 µM; growth rescue (activation): at the top concentration
# Outline: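 TDP-43-expressing yeast, pregrown in raffinose, seeded at OD600 0.02 in galactose medium with compound for 24 hr at 30 deg C. Growth read by BacTiter-Glo luminescence, so rescue of toxicity appears as activation.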
row,Compound,growth rescue (activation)
1,Cc1ccc(NC(=O)C2CCC(N3C(=O)C4CCCCC4C3=O)CC2)cc1 (stereo not drawn),inactive: 4.93%
2,CC1(C)Cc2c(c(-c3ccco3)[nH]c(=O)c2C#N)CS1,inactive: 20.7%
3,Cc1c(C(=O)NCCSCc2ccco2)cccc1[N+](=O)[O-],inactive: 18.8%
4,CC(C)OC(=O)/C(C#N)=C/c1cn(C)c2ccccc12,inactive: 17.3%
5,CCOc1cc(NC(=O)C2CC2)c(OCC)cc1NC(=O)CCn1nnc2ccccc21,inactive: 4.99%
6,CCN(C(=O)CSc1cc(C)c2ccccc2n1)c1c(N)n(Cc2ccccc2)c(=O)[nH]c1=O,inactive: 8.11%
7,Cc1cc(NC(=O)c2cccc(S(=O)(=O)N3CCCCC3)c2)no1,inactive: 9.25%
8,O=C(CNC(=O)C1CCCCC1)OCc1cc(=O)oc2ccc3ccccc3c12,inactive: 9.72%
9,Cc1cc(NC(=O)CSc2nnnn2-c2ccc(C(C)C)cc2)no1,inactive: 13.8%
10,CCCn1nnnc1SCC(=O)NC1CCCC1,inactive: 14.2%
11,O=C(O)CSc1ncnc2c1oc1ccccc12,inactive: -9.84%
12,CC(=O)c1c(C)[nH]c(C(=O)Nc2nc(-c3ccccc3)c(C)s2)c1C,inactive: -6.05%
13,CCCS(=O)(=O)NC(=O)C1(C)CCCN(C(=O)c2ccc(C(F)(F)F)nc2C)C1 (stereo not drawn),inactive: -2.55%
14,CC(C)=CC(=O)N1CCC(N2CCC(C(=O)NCC3CCCO3)CC2)CC1 (stereo not drawn),inactive: 0.268%
15,O=C1NCCN(Cc2cccc(Oc3ccccc3)c2)C1CC(=O)N1CCCO1 (stereo not drawn),inactive: 7.9%
16,COc1ccc(NC(=S)NC(=NS(=O)(=O)c2ccc(Cl)cc2)c2ccccc2)cc1,inactive: 4.94%
17,O=C1c2cccc3cc([N+](=O)[O-])cc(c23)C(=O)N1/N=C/c1ccc(O)cc1O,inactive: 18.1%
18,O=C(Nc1ccc(F)cc1)C1(S(=O)(=O)c2ccc(Cl)cc2)CC1,inactive: 12.9%
19,O=C(c1cccc(C(F)(F)F)c1)C1CCCN(C(=O)CN2CCCC2=O)C1 (stereo not drawn),inactive: 4.32%
20,Cc1cnn(Cc2cccnc2)c1N,inactive: 5.86%
21,CCCCNC(=O)COC(=O)c1ccc(Cl)c(S(N)(=O)=O)c1,inactive: -15.3%
22,O=C(N/N=C/c1cc(Br)c(Br)o1)c1cccnc1,inactive: 1.74%
23,NS(=O)(=O)c1ccc(N/N=C/c2cn(-c3ccccc3)nc2-c2cccs2)cc1,inactive: -32.7%
24,COC(=O)C(C)Sc1nc2c(c(=O)[nH]c(=O)n2C)n1CCCc1ccccc1 (stereo not drawn),inactive: 13%
25,COc1ccc(NS(=O)(=O)c2cc(NC(=O)Cc3cccs3)ccc2C)cc1,inactive: 5.74%
26,CC(C)Nc1ncnc2c1ncn2[C@H]1CN(Cc2ccc(-c3ccccc3)cc2)C[C@@H](CO)O1,inactive: 20.6%
27,Cc1cc2c(o1)CC(C)(C)CC2=O,inactive: 6.8%

row,Compound,growth rescue (activation)
1,CC1(CCc2ccccc2)NC(=O)N(CC(=O)Nc2ccccc2)C1=O (stereo not drawn),inactive: 9.51%
2,Cc1ccnc(NC(=O)c2sc3ccccc3c2Cl)c1,inactive: 5.44%
3,CCc1ccc(CN(C)C(C)C(=O)NCc2ccccc2)cc1 (stereo not drawn),inactive: 0.392%
4,CCN(CC)C(=O)Cn1cnc2sc(C(=O)N3CCN(Cc4ccc5c(c4)OCO5)CC3)c(C)c2c1=O,inactive: -25%
5,COc1ccccc1NC(=O)C1CCN(C(=O)c2ccco2)CC1,inactive: 15.5%
6,Cc1cc(C(=O)Oc2cccnc2)ccc1[N+](=O)[O-],inactive: 1.34%
7,COc1ccccc1OCCCOc1cccc(/C=C2\SC(=O)NC2=O)c1,inactive: 4.86%
8,O=C1CN(S(=O)(=O)c2cccc(Cl)c2Cl)c2ccccc2N1,inactive: -15.5%
9,COc1cc(CCC(=O)OCC(=O)Nc2c(Cl)cccc2Cl)cc(OC)c1OC,inactive: -0.975%
10,O=[N+]([O-])c1cc(Br)c(O)c(/C=N/Nc2nc3ccccc3s2)c1,inactive: 9.45%
11,CC1(Oc2ccccc2-c2ccno2)CCN(Cc2csc3ccccc23)C1 (stereo not drawn),inactive: 2.49%
12,CC1(Cc2c(Cl)cccc2Cl)C(=O)Nc2cc(-c3ccccc3Cl)ccc21 (stereo not drawn),inactive: -0.556%
13,CN(c1ncnc(N)c1[N+](=O)[O-])C1CCS(=O)(=O)C1 (stereo not drawn),inactive: 9.1%
14,O=C(COC(=O)c1cccnc1Cl)NC1CCCCCC1,inactive: 3.07%
15,COc1ccc2[nH]c(=O)c(CN(Cc3ccc(C)cc3)Cc3nnnn3CC3CCCO3)cc2c1 (stereo not drawn),inactive: 2.05%
16,Cc1nc2ccccn2c1C(=O)NN=C1C2CC3CC(C2)CC1C3,inactive: 18.6%
17,CC(Sc1ccccc1)C(=O)Nc1ccccc1C(=O)N1CCOCC1 (stereo not drawn),inactive: -26.6%
18,O=C(Nc1ncc2c(n1)CC(c1ccco1)CC2=O)c1ccco1 (stereo not drawn),inactive: 9.91%
19,COc1ccc2cc(-c3cc(C(=O)OCC(=O)NC4CCS(=O)(=O)C4)c4ccccc4n3)ccc2c1 (stereo not drawn),inactive: 10.8%
20,O=C(CSC1=NCCS1)Nc1ccc(F)cc1,inactive: 10.1%
21,CCOc1ccc(C(=O)N[C@H](C(=O)NNC(=O)c2cccs2)C(C)C)cc1,inactive: 5.15%
22,CC(OC(=O)CN1C(=O)c2ccccc2C1=O)C(=O)NC1CCCC1 (stereo not drawn),inactive: 9.51%
23,CC(=O)Nc1ccc(NC(=S)Nc2ccc(Br)cc2)cc1,inactive: 19.4%
24,CC(CCc1ccccc1)NC(=O)C(=O)NCCc1ccccc1 (stereo not drawn),inactive: 15.3%
25,Cc1cc(N=Cc2c(O)n(-c3cccc(C(F)(F)F)c3)c(=O)c3ccccc23)no1,inactive: 6.05%
26,CC(C)(C)NC(=S)NCCc1ccccc1,inactive: 21.4%
